# In publication PMC4336329 (PLoS ONE, 2015):
# The campaign covered roughly 310,000 compounds. About 2,200 (0.71%) showed an effect of 50% or more. Effects have a minus sign here. The list shows a part of the results.
# Target: human ether-à-go-go-related gene (hERG) potassium channel (human, UniProt Q12809)
# Assay: primary screen, population patch clamp on CHO cells stably expressing hERG
# human ether-à-go-go-related gene (hERG) potassium channel, sequence (Q12809 whole entry, looked up): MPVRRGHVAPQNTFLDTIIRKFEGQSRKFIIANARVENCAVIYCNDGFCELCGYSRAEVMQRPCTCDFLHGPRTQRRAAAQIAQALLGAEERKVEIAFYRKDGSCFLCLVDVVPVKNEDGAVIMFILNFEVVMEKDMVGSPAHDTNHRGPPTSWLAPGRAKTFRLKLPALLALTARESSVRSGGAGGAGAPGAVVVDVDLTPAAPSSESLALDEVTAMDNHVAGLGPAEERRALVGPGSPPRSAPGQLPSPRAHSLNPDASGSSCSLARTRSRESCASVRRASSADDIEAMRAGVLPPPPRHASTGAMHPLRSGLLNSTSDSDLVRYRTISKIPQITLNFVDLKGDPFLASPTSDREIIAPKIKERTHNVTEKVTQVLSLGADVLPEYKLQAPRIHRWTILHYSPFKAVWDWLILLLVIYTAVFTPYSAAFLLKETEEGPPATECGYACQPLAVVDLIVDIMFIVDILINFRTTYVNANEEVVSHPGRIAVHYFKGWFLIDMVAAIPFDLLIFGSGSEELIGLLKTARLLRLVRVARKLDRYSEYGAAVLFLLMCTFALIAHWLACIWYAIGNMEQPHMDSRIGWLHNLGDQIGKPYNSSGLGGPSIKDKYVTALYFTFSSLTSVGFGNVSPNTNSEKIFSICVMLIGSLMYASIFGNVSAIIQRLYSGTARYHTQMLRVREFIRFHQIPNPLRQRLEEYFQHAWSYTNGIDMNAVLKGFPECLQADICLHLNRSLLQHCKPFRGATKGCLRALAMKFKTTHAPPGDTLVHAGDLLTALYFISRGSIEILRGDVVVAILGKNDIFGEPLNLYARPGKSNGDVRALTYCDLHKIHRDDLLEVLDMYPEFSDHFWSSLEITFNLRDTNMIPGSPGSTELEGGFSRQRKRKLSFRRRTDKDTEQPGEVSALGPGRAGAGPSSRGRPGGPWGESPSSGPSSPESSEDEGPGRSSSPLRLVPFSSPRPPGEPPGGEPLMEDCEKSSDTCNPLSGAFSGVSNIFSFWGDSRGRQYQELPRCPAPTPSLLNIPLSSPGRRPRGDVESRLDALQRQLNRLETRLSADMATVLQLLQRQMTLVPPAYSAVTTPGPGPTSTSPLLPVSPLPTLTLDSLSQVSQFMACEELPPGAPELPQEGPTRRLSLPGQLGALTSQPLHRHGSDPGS
row,Structure (SMILES),"hERG current change (%, negative = inhibition) at 1uM [%]"
1,COC(=O)c1ccc(NC(=S)NCCc2ccc(OC)cc2)cc1,14.3
2,Cc1noc(C)c1COC(=O)COc1ccc(C#N)cc1,14.4
3,O=C(NNC(=O)c1ccccc1O)c1ccc(Cl)c(S(=O)(=O)N2CCc3ccccc32)c1,14.1
4,CC1(C)Cc2c(sc(NC(=O)c3ccc(S(=O)(=O)N4CCCC4)cc3)c2C#N)C(C)(C)N1,3.25
5,Cc1ccc(F)c(NC(=O)C2CCCCC2C(=O)O)c1 (stereo not shown),14.5
6,Clc1ccc(/C=C/c2ncc3ccccn23)cc1,7.34
7,CC(C)C(=O)Nc1ccc(C(=O)c2ccccc2)cc1,-0.822
8,CN(CCOC(=O)c1cccc(F)c1)Cc1ccccc1.Cl,-3.43
9,COc1cc(/C=C2\C(=N)N3N=CSC3=NC2=O)ccc1OS(=O)(=O)c1ccccc1,6.08
10,COC(=O)CCC(=O)OC1(C)C(=O)C2=CN(CCN3CCOCC3)C(c3ccc(OC)cc3)=CC2=C(Br)C1=O (stereo not shown),-1.84
11,O=C(CSCc1ccc(F)cc1)NCc1ccc(F)cc1,2.28
12,COc1ccc(N2CCN(c3nc(NCCc4ccc(OC)c(OC)c4)nc(OC)n3)CC2)cc1,-42.1
13,O=c1c2ccccc2c(/C=N/c2nnc(Cc3ccccc3)s2)c(O)n1-c1ccc(Cl)cn1,11.3
14,COc1cc(C(=O)N(C)CCOc2ccccc2)ccc1OCC(=O)Nc1cccc(C(F)(F)F)c1,3.32
15,Cc1ccc(CNC(=O)C2CC(=O)OC23CCCC3)c(C)c1 (stereo not shown),6.84
16,O=C(CN(C(=O)CSc1nc2ccccc2o1)c1ccccc1F)NC1CCCCC1,7.57
17,CS(=O)(=O)NNP(=O)(NNS(C)(=O)=O)NC(=O)c1ccc(Br)cc1,13
18,Cc1cc2nc(SCC(=O)O)nc(C)c2cc1C,13.4
19,O=C(/C=C/Nc1ccc(F)cc1)c1ccc(Oc2ncccn2)cc1,14.8
20,CC1CCC(C(C)C)C(OC(=O)Cn2c(-c3ccccc3)[n+](C)c3ccccc32)C1.[Cl-] (stereo not shown),-42.1
21,CCC(C)(C(=O)Nc1c(C)cccc1C)N(C)C(=O)c1ccc2ccccc2n1 (stereo not shown),13.7
22,CN1CCOCCOCCN(C)C(=O)N2CCOCCOCCN(CCOCC2)C1=O,11.8
23,Nc1c(C(=O)Nc2cccc(F)c2)nnn1-c1ccc2c(c1)OCCO2,14.2
24,O=C(N/N=C\c1cn[nH]c1-c1ccccc1)c1cccs1,12.2
25,O=C(COc1ccc(/C=C\[N+](=O)[O-])cc1)N1CCOCC1,9.7
26,O=c1cc(O)nc(SC23CC4CC(CC(C4)C2)C3)[nH]1,10.2
27,Cc1cccc(NC(=S)N2CCN(c3ccccc3)CC2)c1,15.4
28,Cc1ccc(S(=O)(=O)c2c(C)cc(C)[nH]c2=O)c(C)c1,6.96

row,Structure (SMILES),"hERG current change (%, negative = inhibition) at 1uM [%]"
1,O=C(c1cccc(S(=O)(=O)Nc2ccc(F)cc2)c1)N1CCOCC1,14
2,Cc1ccc(Cn2ncn(-c3ccccc3)c2=O)cc1,10
3,CCOC(=O)NNC1CC(=O)N(c2ccc(OC)cc2)C1=O (stereo not shown),17.2
4,O=C1N/C(=N\N=C\c2ccccn2)SC1Cc1cccc(SC(F)F)c1 (stereo not shown),3.61
5,COc1ccc(CC(=O)NNc2ncnc3c2cnn3-c2ccccc2)cc1,11.4
6,CCOC(=O)c1ccc(NC(=O)CSC2=NN3CCCC(=O)N=C3S2)cc1,15.7
7,S=C(NCC1CCCO1)N1CCN(c2nc(-c3ccccc3)cs2)CC1 (stereo not shown),11.6
8,CN(CC(=O)NCCCN1CCOCC1)S(=O)(=O)c1ccc(F)cc1,15.7
9,O=C(O)CC/C(=N/Nc1ncc(C(F)(F)F)cc1Cl)C(=O)O,12.5
10,Cc1ccc(NC(=O)COc2ccccc2)cc1S(=O)(=O)N1CCCCCC1,4.39
11,C/C(Cl)=C\Cn1c(Nc2cccc(C)c2)nc2c1c(=O)n(C)c(=O)n2C,5.85
12,CCN(CC)C(=O)CSc1nnc2cc(C)c3ccccc3n12,14.6
13,O=C(Cn1ccc(=O)[nH]c1=O)NCCO,1.18
14,COc1ccc(/C=C/C(=O)Oc2ccc(C=O)cc2OC)cc1,10.3
15,Cc1nc(Nc2nc(-c3ccccc3)cc(=O)[nH]2)nc2ccccc12,-5.19
16,CCOC(=O)c1nn(-c2ccc(Cl)cc2)c2nc(Nc3ccccc3)cc(=O)n12,16.3
17,O=C(COc1ccccc1)Nc1nnc(-c2ccc(F)cc2)o1,0.983
18,CCOC(=O)C(NC(=O)Nc1ccc(O)cc1)(c1ccccc1)C(F)(F)F (stereo not shown),10.1
19,CSc1nnc(-c2cccc(NC(=O)c3ccccc3)c2)n1C,0.0495
20,CCN(CC)S(=O)(=O)c1cc(NC(=O)C(C)N2CC=C(c3ccccc3)CC2)ccc1C (stereo not shown),2.32
21,COc1ccc(CNC(=O)C(c2ccco2)N(C(=O)c2snc(C(N)=O)c2N)c2ccccc2OC)cc1 (stereo not shown),-15.1
22,COc1ccc2c(c1)N(S(=O)(=O)c1ccccc1)CCC2=O,6.21
23,Cc1ccc(-n2c(=O)c3sccc3n(Cc3cc(=O)n4ccccc4n3)c2=O)cc1,-10.7
24,CCOc1ccc(S(=O)(=O)NCCC(=O)Nc2ccncc2)cc1,-9.76
25,Cc1c(/C=N\NC(=O)C2COc3ccccc3O2)c2ccccc2n1C (stereo not shown),12.9
26,O=C(O)CC1(CC(=O)Nc2cc3ccccc3cn2)CCCCC1,10.1
27,NC(=O)c1nsc(C(=O)N(c2ccccc2)C(C(=O)NCC2CCCO2)c2ccc(F)cc2)c1N (stereo not shown),11.4
